# From the supplement of paper PMC8728848
# This is one part of the list.
# Columns and labels:
# Assay in all cases: glycan array binding signal (z-score within array); higher = stronger binding
# Settings in all cases: glycan notation: IUPAC condensed, linker removed
# [1] = target: Neu5Ac(a2-6)Gal(b1-4)GlcNAc(b1-2)Man(a1-3)[Neu5Ac(a2-3)Gal(b1-4)GlcNAc(b1-2)Man(a1-6)]Man(b1-4)GlcNAc(b1-4)GlcNAc
# In short: (§1)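 From the Consortium for Functional Glycomics database, 3228 arrays were curated, keeping only those whose protein sequence was available. Binding is given as a within-array Z-score averaged across arrays sharing a protein sequence and across linkers. Negative Z-scores can be read as non-binding.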
# [2] = target: Neu5Ac(a2-6)Gal(b1-4)GlcNAc(b1-2)Man(a1-3)[Neu5Ac(a2-6)Gal(b1-4)GlcNAc(b1-2)Man(a1-6)]Man(b1-4)GlcNAc(b1-4)GlcNAc
# In short: as §1
# [3] = target: Neu5Ac(a2-6)Gal(b1-4)GlcNAc(b1-2)Man(a1-3)[Neu5Ac(a2-6)Gal(b1-4)GlcNAc(b1-2)Man(a1-6)]Man(b1-4)GlcNAc(b1-4)[Fuc(a1-6)]GlcNAc
# In short: as §1
# [4] = target: Neu5Ac(a2-6)Gal(b1-4)GlcNAc(b1-2)Man(a1-6)Man(b1-4)GlcNAc(b1-4)GlcNAc
# In short: as §1
# [5] = target: Neu5Ac(a2-6)Gal(b1-4)GlcNAc(b1-2)Man(a1-6)[Gal(b1-4)GlcNAc(b1-2)Man(a1-3)]Man(b1-4)GlcNAc(b1-4)GlcNAc
# In short: as §1
# [6] = target: Neu5Ac(a2-6)Gal(b1-4)GlcNAc(b1-2)Man(a1-6)[GlcNAc(b1-2)Man(a1-3)]Man(b1-4)GlcNAc(b1-4)GlcNAc
# In short: as §1
# [7] = target: Neu5Ac(a2-6)Gal(b1-4)GlcNAc(b1-2)Man(a1-6)[Man(a1-3)]Man(b1-4)GlcNAc(b1-4)GlcNAc
# In short: as §1
# [8] = target: Neu5Ac(a2-6)Gal(b1-4)GlcNAc(b1-2)[Neu5Ac(a2-6)Gal(b1-4)GlcNAc(b1-4)]Man(a1-3)[GlcNAc(b1-4)][Neu5Ac(a2-6)Gal(b1-4)GlcNAc(b1-2)[Neu5Ac(a2-6)Gal(b1-4)GlcNAc(b1-6)]Man(a1-6)]Man(b1-4)GlcNAc(b1-4)GlcNAc
# In short: as §1
# [9] = target: Neu5Ac(a2-6)Gal(b1-4)GlcNAc(b1-2)[Neu5Ac(a2-6)Gal(b1-4)GlcNAc(b1-4)]Man(a1-3)[GlcNAc(b1-4)][Neu5Ac(a2-6)Gal(b1-4)GlcNAc(b1-4)Man(a1-6)]Man(b1-4)GlcNAc(b1-4)GlcNAc
# In short: as §1
# [10] = target: Neu5Ac(a2-6)Gal(b1-4)GlcNAc(b1-2)[Neu5Ac(a2-6)Gal(b1-4)GlcNAc(b1-6)]Man(a1-6)[Neu5Ac(a2-6)Gal(b1-4)GlcNAc(b1-2)Man(a1-3)][GlcNAc(b1-4)]Man(b1-4)GlcNAc(b1-4)GlcNAc
# In short: as §1
# [11] = target: Neu5Ac(a2-6)Gal(b1-4)GlcNAc(b1-3)Gal(b1-3)GlcNAc
# In short: as §1
# [12] = target: Neu5Ac(a2-6)Gal(b1-4)GlcNAc(b1-3)Gal(b1-4)GlcNAc
# In short: as §1
# [13] = target: Neu5Ac(a2-6)Gal(b1-4)GlcNAc(b1-3)Gal(b1-4)GlcNAc(b1-2)Man(a1-3)[Neu5Ac(a2-6)Gal(b1-4)GlcNAc(b1-3)Gal(b1-4)GlcNAc(b1-2)Man(a1-6)]GalNAc
# In short: as §1
# [14] = target: Neu5Ac(a2-6)Gal(b1-4)GlcNAc(b1-3)Gal(b1-4)GlcNAc(b1-3)Gal(b1-4)GlcNAc
# In short: as §1
# [15] = target: Neu5Ac(a2-6)Gal(b1-4)GlcNAc(b1-3)Gal(b1-4)GlcNAc(b1-3)Gal(b1-4)GlcNAc(b1-2)Man(a1-3)[Neu5Ac(a2-6)Gal(b1-4)GlcNAc(b1-3)Gal(b1-4)GlcNAc(b1-3)Gal(b1-4)GlcNAc(b1-2)Man(a1-6)]GalNAc
# In short: as §1
# [16] = target: Neu5Ac(a2-6)Gal(b1-4)GlcNAc(b1-3)Gal(b1-4)GlcNAc(b1-3)GalNAc
# In short: as §1
# [17] = target: Neu5Ac(a2-6)Gal(b1-4)GlcNAc(b1-3)Gal(b1-4)GlcNAc(b1-3)[Neu5Ac(a2-6)Gal(b1-4)GlcNAc(b1-3)Gal(b1-4)GlcNAc(b1-6)]GalNAc
# In short: as §1
# [18] = target: Neu5Ac(a2-6)Gal(b1-4)GlcNAc(b1-3)Gal(b1-4)GlcNAc(b1-6)[Gal(b1-3)]GalNAc
# In short: as §1
# [19] = target: Neu5Ac(a2-6)Gal(b1-4)GlcNAc(b1-3)Gal(b1-4)[Fuc(a1-3)]GlcNAc(b1-3)Gal(b1-4)[Fuc(a1-3)]GlcNAc
# In short: as §1
# [20] = target: Neu5Ac(a2-6)Gal(b1-4)GlcNAc(b1-3)GalNAc
# In short: as §1
# [21] = target: Neu5Ac(a2-6)Gal(b1-4)GlcNAc(b1-3)[Neu5Ac(a2-6)Gal(b1-4)GlcNAc(b1-6)]GalNAc
# In short: as §1
# [22] = target: Neu5Ac(a2-6)Gal(b1-4)GlcNAc(b1-6)GalNAc
# In short: as §1
# [23] = target: Neu5Ac(a2-6)Gal(b1-4)GlcNAc(b1-6)[Gal(b1-3)GlcNAc(b1-3)]Gal(b1-4)Glc
# In short: as §1
# [24] = target: Neu5Ac(a2-6)Gal(b1-4)GlcNAc(b1-6)[Gal(b1-3)]GalNAc
# In short: as §1
# [25] = target: Neu5Ac(a2-6)Gal(b1-4)GlcNAc6S
# In short: as §1
# Neu5Ac(a2-6)GalNAc = target: Neu5Ac(a2-6)GalNAc
# In short: as §1
# [26] = target: Neu5Ac(a2-6)GalNAc(b1-4)GlcNAc
# In short: as §1
# [27] = target: Neu5Ac(a2-6)GalNAc(b1-4)GlcNAc6S
# In short: as §1
# [28] = target: Neu5Ac(a2-6)GlcNAc(b1-4)GlcNAc
# In short: as §1
# [29] = target: Neu5Ac(a2-6)GlcNAc(b1-4)GlcNAc(b1-4)GlcNAc
# In short: as §1
# Neu5Ac(a2-8)Neu5Ac = target: Neu5Ac(a2-8)Neu5Ac
# In short: as §1
# [30] = target: Neu5Ac(a2-8)Neu5Ac(a2-3)Gal(b1-3)GalNAc(b1-4)[Neu5Ac(a2-3)]Gal(b1-4)Glc
# In short: as §1
# [31] = target: Neu5Ac(a2-8)Neu5Ac(a2-3)Gal(b1-3)GalNAc(b1-4)[Neu5Ac(a2-8)Neu5Ac(a2-3)]Gal(b1-4)Glc
# In short: as §1
# [32] = target: Neu5Ac(a2-8)Neu5Ac(a2-3)Gal(b1-4)Glc
# In short: as §1
# [33] = target: Neu5Ac(a2-8)Neu5Ac(a2-3)Gal(b1-4)GlcNAc
# In short: as §1
# [34] = target: Neu5Ac(a2-8)Neu5Ac(a2-3)[Gal(b1-3)GalNAc(b1-4)]Gal(b1-4)Glc
# In short: as §1
# [35] = target: Neu5Ac(a2-8)Neu5Ac(a2-3)[GalNAc(b1-4)]Gal(b1-4)Glc
# In short: as §1
# [36] = target: Neu5Ac(a2-8)Neu5Ac(a2-8)Neu5Ac
# In short: as §1
binder,measurement,setting,value
"MAL-II (Maackia amurensis), P93248 (protein) ATSNSKPTQVLLATFLTFFFLLLNNVNSSDELSFTINNFVPNEADLLFQGEASVSSTGVLQLTRVENGQPQQYSVGRALYAAPVRIWDNTTGSVASFSTSFTFVVKAPNPTITSDGLAFFLAPPDSQIPSGRVSKYLGLFNNSNSDSSNQIVAVEFDTYFGHSYDPWDPNYRHIGIDVNGIESIKTVQWDWINGGVAFATITYLAPNKTLIASLVYPSNQTSFIVAASVDLKEILPEWVRVGFSAATGYPTQVETHDVLSWSFTSTLEANSDAATENNVHIARYTA",glycan array binding signal (z-score),[1],-0.233
same,glycan array binding signal (z-score),[2],-0.212
same,glycan array binding signal (z-score),[3],-0.089
same,glycan array binding signal (z-score),[4],-0.25
same,glycan array binding signal (z-score),[5],-0.26
same,glycan array binding signal (z-score),[6],-0.214
same,glycan array binding signal (z-score),[7],-0.223
same,glycan array binding signal (z-score),[8],-0.112
same,glycan array binding signal (z-score),[9],-0.028
same,glycan array binding signal (z-score),[10],-0.057
same,glycan array binding signal (z-score),[11],-0.178
same,glycan array binding signal (z-score),[12],-0.191
same,glycan array binding signal (z-score),[13],0.3
same,glycan array binding signal (z-score),[14],-0.19
same,glycan array binding signal (z-score),[15],0.565
same,glycan array binding signal (z-score),[16],-0.144
same,glycan array binding signal (z-score),[17],0.767
same,glycan array binding signal (z-score),[18],-0.182
same,glycan array binding signal (z-score),[19],-0.108
same,glycan array binding signal (z-score),[20],-0.175
same,glycan array binding signal (z-score),[21],-0.211
same,glycan array binding signal (z-score),[22],-0.077
same,glycan array binding signal (z-score),[23],-0.207
same,glycan array binding signal (z-score),[24],-0.167
same,glycan array binding signal (z-score),[25],-0.231
same,glycan array binding signal (z-score),Neu5Ac(a2-6)GalNAc,-0.215
same,glycan array binding signal (z-score),[26],-0.218
same,glycan array binding signal (z-score),[27],-0.268
same,glycan array binding signal (z-score),[28],-0.351
same,glycan array binding signal (z-score),[29],-0.229
same,glycan array binding signal (z-score),Neu5Ac(a2-8)Neu5Ac,-0.192
same,glycan array binding signal (z-score),[30],-0.263
same,glycan array binding signal (z-score),[31],-0.237
same,glycan array binding signal (z-score),[32],-0.167
same,glycan array binding signal (z-score),[33],-0.255
same,glycan array binding signal (z-score),[34],-0.261
same,glycan array binding signal (z-score),[35],-0.19
same,glycan array binding signal (z-score),[36],-0.238
